# Experimental data: PubChem BioAssay AID445 (National Center for Advancing Translational Sciences (NCATS), 2006)
# Screen size: about 110,000 compounds; about 40 (0.04%) were called active. The inconclusive results got no clear call from the source; some entries with a clear call stand among them for comparison. Calls come from the whole dose curve; as a rule, active = well fitted curve in the direction sought with a large enough effect in the signal ratio (not every such curve was filed as active); inconclusive = small, poorly fitted or top-dose-only effect, or a change in a side signal; inactive = flat fitted curve, though single readings scatter; the % refers to the signal ratio. Where the call is inconclusive, the potency comes from a doubtful curve fit.
# Experiment: IkB Signaling;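 for IkBa stabilization activation: 0% = basal untreated cells and 100% = reference inhibitor full response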
# Settings: ABC-DLBCL IkBa-CBG/CBR dual luciferase ratio (green luciferase fused to IkBa over red control in OCI-Ly3 lymphoma cells), 4 h; IkBa stabilization activation: at 57.1 µM (top of the series), scaled: untreated 0%, proteasome inhibitor 100% unless noted
# Summary of the method: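 In this assay, an IκBα–CBG68 fusion accumulates when IKK-driven degradation is blocked; native CBR normalizes for cell number. OCI-Ly3 cells were treated 4 h with compound and doxycycline, then green and red light read after Chroma-Glo addition.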
# Potency is the fitted concentration of half-maximal effect.
SMILES,IkBa stabilization activation,Potency
COc1ccc(CCNC(=O)Cn2c(=O)c3cccn3c3ccc(F)cc32)cc1OC,inactive: -0.0413%,–
N/C(CC/C(N)=N/O)=N\O,"inactive: 0.464% [at 11.4 µM, scaled: untreated 0%, proteasome inhibitor 100%]",–
COc1ccc(C(=O)CCC(=O)Nc2cccc(C(C)=O)c2)cc1,inconclusive: 2.58% [signal inhibitor],–
Cc1cc2oc(C(=O)Nc3nc(-c4ccccc4)ns3)c(C)c2cc1Cl,inconclusive: -2.69% [signal inhibitor],–
CC(=O)c1ccc(NS(=O)(=O)c2ccc3[nH]c4c(c3c2)CCCCCC4)cc1,inconclusive: -2.64% [signal inhibitor],–
CN1CCN(CCCN2c3ccccc3Sc3ccc(Cl)cc32)CC1,inactive,–
CCCCN(C)CCNC(=O)C1CCN(c2nc3ccc(CC)cc3s2)CC1,inconclusive: 2.36% [signal inhibitor],–
COc1ccc(N2CCN(C(=O)c3cccc(Cn4cc(Cl)cn4)c3)CC2)cc1,inconclusive: 1.27% [signal inhibitor],–
Cc1ccc(C)n1-n1c(C)nc2sc3c(c2c1=O)CCCCC3,inconclusive: 3.36% [signal inhibitor],–
COc1ccc(C(c2nnnn2CC2CCCO2)N2CCN(c3ccccc3)CC2)cc1 (centres undefined),inactive: 0.448%,–
O=C1[C@@H]2[C@@H](C(=O)N1c1ccc(OCc3ccccc3)cc1)[C@@H]1c3ccccc3[C@@H]2[n+]2ccccc21,"inactive: -1.33% [at 11.4 µM, scaled: untreated 0%, proteasome inhibitor 100%]",–
CCOC(=O)c1ccc(Nc2cc(C)nc(N3CCOCC3)n2)cc1,inconclusive: 0.528% [signal inhibitor],–
COc1ccc(C(c2c(O)cc(C)n(Cc3ccco3)c2=O)N2CCN(c3ccccc3)CC2)cc1 (centres undefined),inconclusive: 2.48% [signal inhibitor],–
CCc1nc(SCC(=O)N2CCN(c3ccccc3)CC2)c2c(=O)n(C)c(=O)n(C)c2n1,inactive: 3.14%,–
CC(=O)Nc1ccc(N/C=C/C(=O)c2ccc(C)o2)cc1,inactive: -0.461%,–
CCc1nc(SCC(=O)N2CCCC2)c2ccccc2n1,inactive: 0.771%,–
Cc1ccccc1-n1nc(CO)c(C(=O)NCCc2ccccc2)n1,inconclusive: -0.18% [signal inhibitor],–
CN(C)CCOC(=O)c1ccc(N)cc1,"inactive: 0.294% [at 11.4 µM, scaled: untreated 0%, proteasome inhibitor 100%]",–
CC1CCc2c(sc(NC(=O)c3ccccc3)c2C(=O)Nc2ccccc2)C1 (centres undefined),–,"inconclusive: 10 µM [signal inhibitor, partial curve]"
CCOC(=O)CSc1nc2ccc(NC(=O)COc3ccccc3)cc2s1,inactive: 11.3%,–
Cc1occc1-c1nnc(SCc2cc(=O)n3cc(Br)ccc3n2)n1C,inactive: -0.761%,–
CCC(c1nnnn1CCc1ccccc1)N(Cc1ccco1)Cc1cc2cc(C)cc(C)c2[nH]c1=O (centres undefined),inconclusive: 5.78% [signal inhibitor],–

SMILES,IkBa stabilization activation,Potency
NNc1nncc2ccccc12,inactive,–
COc1ccc(CCNC(=O)c2cc3c(=O)n4ccccc4nc3n2C)cc1,inconclusive: 2.32% [signal inhibitor],–
COc1ccc(-c2nc3cncnc3n(-c3ccccc3)c2=O)cc1,"inactive: 2.81% [at 11.4 µM, scaled: untreated 0%, proteasome inhibitor 100%]",–
Cc1ccc2oc(-c3ccc(NC(=O)c4cccnc4)cc3)nc2c1,inconclusive: 3.96% [signal inhibitor],–
COc1cccc(N2CCN(C(=O)c3ccc4c(Cl)c5c(nc4c3)CCCC5)CC2)c1,inconclusive: 1.58% [signal inhibitor],–
CCC(=O)N1CCc2cc(Br)cc(S(=O)(=O)N3CCC(C(=O)Nc4cccc(C)c4)CC3)c21,inconclusive: 1.86% [signal inhibitor],–
CCOC(=O)N1CCN(S(=O)(=O)c2cc(Br)cnc2N)CC1,inactive: 1.64%,–
COc1ccc([C@H]2Sc3ccccc3N(CCN(C)C)C(=O)[C@H]2OC(C)=O)cc1,inactive,–
Cc1nc(Nc2ccc3c(c2)OCCO3)c2oc3ccccc3c2n1,inactive: -5.64%,–
O=C(CSc1nnc2scc(-c3ccccc3)n12)N1CCN(Cc2ccccc2)CC1,–,"inconclusive: 10 µM [signal inhibitor, partial curve]"
CNC(=O)C1CCC(Cn2c(=O)c3sccc3n(CC(=O)Nc3cc(C)cc(C)c3)c2=O)CC1 (centres undefined),inactive: -0.0238%,–
COc1cccc(NC(=O)Cn2nc(-c3ccncc3)ccc2=O)c1,inconclusive: 2.01% [signal inhibitor],–
COc1cccc(Cn2c(=O)c(-c3cccs3)nc3cnc(Nc4ccccc4)nc32)c1,"inactive: -1.45% [at 11.4 µM, scaled: untreated 0%, proteasome inhibitor 100%]",–
Cc1ccc(S(=O)(=O)N(CC(=O)N2CCC(C(N)=O)CC2)Cc2ccc(F)cc2)cc1,inactive: -2.67%,–
COc1cccc(-c2nc(C(N)=O)c3[nH]c(=O)n(-c4cccc(Cl)c4)c3n2)c1OC,inactive: 3.66%,–
CC(C)c1ccc(C(=O)CC2(O)C(=O)N(CCc3ccccc3)c3ccc(Cl)cc32)cc1 (centres undefined),inconclusive: 0.734% [signal inhibitor],–
COc1ccc(OC)c(NC(=O)C2CCN(S(=O)(=O)c3c(C)noc3/C=C/c3ccc(C)cc3)CC2)c1,inconclusive: -1.1% [signal inhibitor],–
COc1ccccc1CNC(=O)c1c(O)c2cc(OC)c(OC)cc2[nH]c1=O,inactive: 6.53%,–
CC(C)(C)/C(O)=C(/C#N)c1nc2ccccc2[nH]1,inconclusive: -0.807% [signal inhibitor],–
Cc1cccc(Cn2c(CN3CCC(C(=O)NCc4ccccc4Cl)CC3)cc3ccccc32)c1,inconclusive: 2.4% [signal inhibitor],–
Cc1ccc(C(=O)Nc2cc(-c3nc4cc(Cl)ccc4o3)ccc2C)c(C)c1,–,inconclusive: 12.6 µM [signal inhibitor]
Nc1ncnc2c1ncn2C[C@@H](O)C(=O)O,"inactive: -1.29% [at 11.4 µM, scaled: untreated 0%, proteasome inhibitor 100%]",–
